Hit rate of the full screen: of about 410,000 compounds, about 6,400 (1.6%) were called active. This list was built around the results that the source calls inconclusive (neither active nor inactive); the mix of calls is not that of the screen. Calls come from the whole dose curve; as a rule, active = well fitted inhibition curve with a large enough effect; inconclusive = small, poorly fitted or top-dose-only effect; inactive = no such curve, though single readings can be large or run the other way. Potencies of inconclusive entries are left out as doubtful fits.
Each compound was assayed against Glucagon-like peptide 1 receptor (Homo sapiens) (UniProt P43220) (assay: qHTS of GLP-1 Receptor Inverse Agonists (Inhibition Mode)). Conditions: HEK293 GLP-1R CRE-luciferase, luminescence, 24 h, GLP-1R form is constitutively active; activity change, negative = inhibition: at 38.3 µM (top of the series) unless noted.
Outline: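 Inverse agonists were sought by their lowering of basal cAMP reporter luciferase output in HEK293 cells stably carrying constitutively active human GLP-1R, after 24 h compound treatment.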
% is set by controls: 0 for no effect and ±100 for the full control effect; potency is the fitted concentration of half-maximal effect; tags give direction and shape of the fitted curve.
Note: nearly all actives have a fitted effect of over 55% in size.

Chain of UniProt P43220 (P43220 whole entry, looked up): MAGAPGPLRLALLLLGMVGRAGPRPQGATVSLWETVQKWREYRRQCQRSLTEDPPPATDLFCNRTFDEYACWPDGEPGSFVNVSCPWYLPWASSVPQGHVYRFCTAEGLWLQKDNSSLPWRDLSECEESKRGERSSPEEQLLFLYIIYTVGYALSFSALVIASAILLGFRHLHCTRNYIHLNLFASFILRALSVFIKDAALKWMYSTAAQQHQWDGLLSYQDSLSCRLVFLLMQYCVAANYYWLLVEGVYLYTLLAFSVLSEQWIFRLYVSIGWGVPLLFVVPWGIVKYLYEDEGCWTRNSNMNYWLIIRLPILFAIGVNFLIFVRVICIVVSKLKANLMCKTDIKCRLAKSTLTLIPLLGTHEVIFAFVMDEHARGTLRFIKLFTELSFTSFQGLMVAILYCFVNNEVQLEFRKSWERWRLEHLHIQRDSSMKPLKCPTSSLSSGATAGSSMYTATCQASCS

| Compound | Potency | activity change, negative = inhibition |
| --- | --- | --- |
| Cc1ccccc1OCC(=O)Nc1ccc(N2CCN(C(=O)C(C)C)CC2)c(Cl)c1 | active: 3.98 µM | – |
| CC(=O)C(C)Oc1ccc(Cc2ncc(C(F)(F)F)cc2Cl)cc1 (configuration not stated) | inconclusive [inhibitor, single point] | – |
| C[C@H](NC(=O)c1nc[nH]c1C(=O)NCc1ccccc1)c1ccccc1 | inconclusive [inhibitor, single point] | – |
| CCN(CC)Cc1c(O)ccc2c([N+](=O)[O-])c(C)n(-c3ccc(OC)cc3)c12 | inconclusive [inhibitor, full curve, poor fit] | – |
| CCOC(=O)C1CCN(c2ncnc3c2c(-c2ccccc2)cn3-c2ccccc2)CC1 | inconclusive [inhibitor, full curve, poor fit] | – |
| COc1ccc(C2(C(=O)Nc3ccc(OC)cc3OC)CCCC2)cc1 | inconclusive [inhibitor, partial curve, poor fit] | – |
| COc1ccccc1NC(=O)CSc1oc(-c2cccs2)nc1S(=O)(=O)c1ccccc1 | inconclusive [inhibitor, single point] | – |
| CCOC(=O)C1(Cc2ccccc2C(F)(F)F)CCN(C2CCCC2)CC1 | inconclusive [inhibitor, partial curve, poor fit] | – |
| COc1ccc(C2C(C(C)=O)=C(O)C(=O)N2c2ccc(Br)cc2)cc1 (configuration not stated) | inconclusive [inhibitor, partial curve, poor fit] | – |
| Cc1oc(-c2ccc(Cl)cc2)nc1CS(=O)CC(=O)NCCCN(C)C1CCCCC1 (configuration not stated) | inconclusive [inhibitor, single point] | – |
| O=c1cc(CSc2n[nH]c(-c3ccccc3)n2)[nH]c2ccccc12 | – | inactive: 28.2% |
| O=C(Nc1ccn(Cc2c(F)c(F)c(F)c(F)c2F)n1)c1cccc(Cn2cc([N+](=O)[O-])cn2)c1 | inconclusive [inhibitor, single point] | – |
| COc1ccc(OC)c2c1C(=O)C(Cl)=C(Cl)C2=O | inconclusive [inhibitor, partial curve, poor fit] | – |
| CCc1cccc(NC(=O)Cn2nc(-c3cc(C)ccc3C)ccc2=O)c1 | inconclusive [inhibitor, single point] | – |
| NC(=O)C1CCN(C(=O)CN2C(=O)c3ccccc3S2(=O)=O)CC1 | – | inactive: 0% |
| COc1cc(OC)c(OC)cc1/C=N/N(C)c1ccccc1 | inconclusive [inhibitor, partial curve, poor fit] | – |
| Cc1ccc(CN2C(=O)C3(c4ccccc42)N(c2cccc(C(F)(F)F)c2)C(=O)CS3(=O)=O)cc1 (configuration not stated) | inconclusive [inhibitor, single point] | – |
